This is one part of the list.
molecular target: T1, MBP-FoxP1dN (Mus musculus, UniProt P58462 326-579); experiment: PD-seq (MBP pull-down with sequencing); 20 mM Tris-HCl pH 7.5, 100 mM NaCl, 1.5 mM MgCl2, 0.4 uM protein, 0.1 uM dsDNA library, 30 min, room temperature, amylose pull-down; high values mean tight binding; conditions: protein: recombinant; tags: His6-MBP; chain copies: 2; dsDNA, one strand shown
T1 sequence: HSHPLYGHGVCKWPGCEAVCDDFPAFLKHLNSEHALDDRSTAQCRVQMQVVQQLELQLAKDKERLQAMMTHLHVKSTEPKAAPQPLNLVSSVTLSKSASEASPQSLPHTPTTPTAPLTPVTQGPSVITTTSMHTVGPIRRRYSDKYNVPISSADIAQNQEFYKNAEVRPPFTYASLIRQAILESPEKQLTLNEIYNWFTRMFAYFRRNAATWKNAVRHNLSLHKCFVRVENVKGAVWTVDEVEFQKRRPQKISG
Method in brief: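 A fragment of mouse FoxP3 or FoxP1 without its N-terminus, carrying a His6-MBP tag and produced in E. coli, was combined at 0.4 µM with a 0.1 µM degenerate double-stranded DNA library filled in with Klenow. The mixture sat for 30 min at room temperature in Tris pH 7.5 buffer containing NaCl and MgCl2. Protein–DNA complexes were captured on amylose resin, washed three times, and the DNA was freed with proteinase K, barcoded by PCR and sequenced on Illumina. Binding is expressed as reads-per-million enrichment of pull-down over input, with replicates pooled.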

**Q.** How did the binding signal turn out when “GATGATTGTTCTCCCAGCTGATGAATTGCTAAGTTCGAGTAAACAAATTTTCCTAATCTTTCTGTTCAAGCGCCATCTAC” was run?
**A.** 1.07 RPM ratio (pull-down/input)

**Q.** “GATGATTGTTCTCCCAGCTGATGAATTCACGTGTTCGAGTAAACAAATTTTCCTAATCTTTCTGTTCAAGCGCCATCTAC” was tested. Which binding signal did it give?
**A.** 1.02 RPM ratio (pull-down/input)

**Q.** For “GATGATTGTTCTCCCAGCTGATGAATTCTAAAATTCGAGTAAACAAATTTTCCTAATCTTTCTGTTCAAGCGCCATCTAC”, which binding signal is on record?
**A.** 0.867 RPM ratio (pull-down/input)

**Q.** Which binding signal does the source give for “GATGATTGTTCTCCCAGCTGATGAATTCACATGGTCGAGTAAACAAATTTTCCTAATCTTTCTGTTCAAGCGCCATCTAC” here?
**A.** 0.9 RPM ratio (pull-down/input)

**Q.** Which binding signal does the source give for “GATGATTGTTCTCCCAGCTGATGAATTGTATCTTTCGAGTAAACAAATTTTCCTAATCTTTCTGTTCAAGCGCCATCTAC” here?
**A.** 1.31 RPM ratio (pull-down/input)

**Q.** For “GATGATTGTTCTCCCAGCTGATGAATTCATGGCGTCGAGTAAACAAATTTTCCTAATCTTTCTGTTCAAGCGCCATCTAC”, which binding signal is on record?
**A.** 0.863 RPM ratio (pull-down/input)

**Q.** For “GATGATTGTTCTCCCAGCTGATGAATTATGCGTTTCGAGTAAACAAATTTTCCTAATCTTTCTGTTCAAGCGCCATCTAC”, which binding signal is on record?
**A.** 1.06 RPM ratio (pull-down/input)

**Q.** Which binding signal does the source give for “GATGATTGTTCTCCCAGCTGATGAATTCGCTCCCTCGAGTAAACAAATTTTCCTAATCTTTCTGTTCAAGCGCCATCTAC” here?
**A.** 0.784 RPM ratio (pull-down/input)

**Q.** How did the binding signal turn out when “GATGATTGTTCTCCCAGCTGATGAATTACTTTAATCGAGTAAACAAATTTTCCTAATCTTTCTGTTCAAGCGCCATCTAC” was run?
**A.** 1.26 RPM ratio (pull-down/input)

**Q.** With “GATGATTGTTCTCCCAGCTGATGAATTCCGCGGCTCGAGTAAACAAATTTTCCTAATCTTTCTGTTCAAGCGCCATCTAC” as the sequence, how does the binding signal read?
**A.** 0.784 RPM ratio (pull-down/input)

**Q.** For “GATGATTGTTCTCCCAGCTGATGAATTTGATCGATCGAGTAAACAAATTTTCCTAATCTTTCTGTTCAAGCGCCATCTAC”, which binding signal is on record?
**A.** 0.901 RPM ratio (pull-down/input)

**Q.** How did the binding signal turn out when “GATGATTGTTCTCCCAGCTGATGAATTATCGCTATCGAGTAAACAAATTTTCCTAATCTTTCTGTTCAAGCGCCATCTAC” was run?
**A.** 1.17 RPM ratio (pull-down/input)

**Q.** Which binding signal does the source give for “GATGATTGTTCTCCCAGCTGATGAATTGCGTGCTTCGAGTAAACAAATTTTCCTAATCTTTCTGTTCAAGCGCCATCTAC” here?
**A.** 1.12 RPM ratio (pull-down/input)

**Q.** For “GATGATTGTTCTCCCAGCTGATGAATTTGCAGCGTCGAGTAAACAAATTTTCCTAATCTTTCTGTTCAAGCGCCATCTAC”, which binding signal is on record?
**A.** 0.944 RPM ratio (pull-down/input)

**Q.** With “GATGATTGTTCTCCCAGCTGATGAATTTTCCGTGTCGAGTAAACAAATTTTCCTAATCTTTCTGTTCAAGCGCCATCTAC” as the sequence, how does the binding signal read?
**A.** 0.971 RPM ratio (pull-down/input)

**Q.** With “GATGATTGTTCTCCCAGCTGATGAATTCCGCGGGTCGAGTAAACAAATTTTCCTAATCTTTCTGTTCAAGCGCCATCTAC” as the sequence, how does the binding signal read?
**A.** 0.762 RPM ratio (pull-down/input)

**Q.** “GATGATTGTTCTCCCAGCTGATGAATTGGGACTGTCGAGTAAACAAATTTTCCTAATCTTTCTGTTCAAGCGCCATCTAC” was tested. Which binding signal did it give?
**A.** 0.862 RPM ratio (pull-down/input)

**Q.** For “GATGATTGTTCTCCCAGCTGATGAATTGCGGCTATCGAGTAAACAAATTTTCCTAATCTTTCTGTTCAAGCGCCATCTAC”, which binding signal is on record?
**A.** 1.02 RPM ratio (pull-down/input)

**Q.** With “GATGATTGTTCTCCCAGCTGATGAATTCAAGTGCTCGAGTAAACAAATTTTCCTAATCTTTCTGTTCAAGCGCCATCTAC” as the sequence, how does the binding signal read?
**A.** 0.841 RPM ratio (pull-down/input)

**Q.** For “GATGATTGTTCTCCCAGCTGATGAATTGTGGTTTTCGAGTAAACAAATTTTCCTAATCTTTCTGTTCAAGCGCCATCTAC”, which binding signal is on record?
**A.** 1.28 RPM ratio (pull-down/input)

**Q.** “GATGATTGTTCTCCCAGCTGATGAATTTTATGGGTCGAGTAAACAAATTTTCCTAATCTTTCTGTTCAAGCGCCATCTAC” was tested. Which binding signal did it give?
**A.** 0.846 RPM ratio (pull-down/input)

**Q.** “GATGATTGTTCTCCCAGCTGATGAATTGCATCAGTCGAGTAAACAAATTTTCCTAATCTTTCTGTTCAAGCGCCATCTAC” was tested. Which binding signal did it give?
**A.** 1.28 RPM ratio (pull-down/input)

**Q.** “GATGATTGTTCTCCCAGCTGATGAATTCGGCGGTTCGAGTAAACAAATTTTCCTAATCTTTCTGTTCAAGCGCCATCTAC” was tested. Which binding signal did it give?
**A.** 0.767 RPM ratio (pull-down/input)

**Q.** How did the binding signal turn out when “GATGATTGTTCTCCCAGCTGATGAATTCAAGAACTCGAGTAAACAAATTTTCCTAATCTTTCTGTTCAAGCGCCATCTAC” was run?
**A.** 0.816 RPM ratio (pull-down/input)

**Q.** “GATGATTGTTCTCCCAGCTGATGAATTAAAGCAATCGAGTAAACAAATTTTCCTAATCTTTCTGTTCAAGCGCCATCTAC” was tested. Which binding signal did it give?
**A.** 1.32 RPM ratio (pull-down/input)

**Q.** Which binding signal does the source give for “GATGATTGTTCTCCCAGCTGATGAATTCAAGTCTTCGAGTAAACAAATTTTCCTAATCTTTCTGTTCAAGCGCCATCTAC” here?
**A.** 0.878 RPM ratio (pull-down/input)

**Q.** For “GATGATTGTTCTCCCAGCTGATGAATTCCAGCCCTCGAGTAAACAAATTTTCCTAATCTTTCTGTTCAAGCGCCATCTAC”, which binding signal is on record?
**A.** 0.686 RPM ratio (pull-down/input)

**Q.** “GATGATTGTTCTCCCAGCTGATGAATTCGAGCTTTCGAGTAAACAAATTTTCCTAATCTTTCTGTTCAAGCGCCATCTAC” was tested. Which binding signal did it give?
**A.** 0.841 RPM ratio (pull-down/input)

**Q.** With “GATGATTGTTCTCCCAGCTGATGAATTTATGGAATCGAGTAAACAAATTTTCCTAATCTTTCTGTTCAAGCGCCATCTAC” as the sequence, how does the binding signal read?
**A.** 1.22 RPM ratio (pull-down/input)

**Q.** Which binding signal does the source give for “GATGATTGTTCTCCCAGCTGATGAATTGAGACTGTCGAGTAAACAAATTTTCCTAATCTTTCTGTTCAAGCGCCATCTAC” here?
**A.** 0.872 RPM ratio (pull-down/input)

**Q.** For “GATGATTGTTCTCCCAGCTGATGAATTTCCCTCATCGAGTAAACAAATTTTCCTAATCTTTCTGTTCAAGCGCCATCTAC”, which binding signal is on record?
**A.** 0.899 RPM ratio (pull-down/input)

Source: article PMC12820563, “FoxP3 forms a head-to-head dimer in vivo and stabilizes its multimerization on adjacent microsatellites”
